# Measured values as given in the BET-seq Pho4 binding data (Le et al. 2018).
# Some of the results follow. These are noisy estimates, calculated here from bound and input reads.
# Molecular target: T1, Pho4 (S. cerevisiae) (UniProt P07270)
# T1 sequence: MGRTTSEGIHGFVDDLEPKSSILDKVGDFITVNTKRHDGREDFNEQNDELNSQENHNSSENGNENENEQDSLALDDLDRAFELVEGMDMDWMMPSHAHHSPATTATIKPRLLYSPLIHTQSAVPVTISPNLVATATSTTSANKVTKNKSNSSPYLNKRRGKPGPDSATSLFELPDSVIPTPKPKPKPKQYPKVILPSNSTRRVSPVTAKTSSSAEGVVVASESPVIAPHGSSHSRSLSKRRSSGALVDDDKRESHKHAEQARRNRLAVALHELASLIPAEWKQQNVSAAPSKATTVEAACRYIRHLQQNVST
# Assay: relative binding free energy (BET-seq); higher = weaker binding
# Details: reference: library average
row,Sequence,relative binding free energy [kcal/mol]
1,TAGGTCACGTGAGAAT,0.31
2,TGCGGCACGTGGGGGT,-0.15
3,TTTAGCACGTGAGTCA,0.02
4,AATTTCACGTGCGTGC,0.24
5,TCGATCACGTGTGGAG,0.25
6,TGTGTCACGTGAGTGT,0.28
7,TTCGACACGTGTTTGG,0.02
8,GACGTCACGTGGAAGG,0.16
9,CGGGTCACGTGACATG,0.34
10,GGTAGCACGTGCTAGT,-0.18
11,GATTGCACGTGGGTCA,-0.15
12,GTATCCACGTGTGTGA,0.14
13,ACGGTCACGTGAAGTG,0.53
14,TGGATCACGTGCTATG,-0.04
15,TTCTACACGTGAGGTA,0.47
16,ATGTCCACGTGGGCGG,-0.22
17,ATCGGCACGTGTAGGT,-0.05
18,GGTAACACGTGCATGG,0
19,GTGGCCACGTGGTTTC,0
20,TTGATCACGTGGGGGA,-0.08
21,CAAGTCACGTGTCGGG,0.16

row,Sequence,relative binding free energy [kcal/mol]
1,AATGGCACGTGTGTCA,-0.11
2,GTGTGCACGTGGGGCC,-0.25
3,GTATTCACGTGTATGC,0.15
4,GGGGGCACGTGGTCGT,-0.21
5,ATGCTCACGTGGGTTG,-0.01
6,TTATTCACGTGGGCAA,0.12
7,AGGCGCACGTGGGTGA,-0.25
8,AGTGGCACGTGTTCTC,-0.01
9,TATGACACGTGTGTTC,-0.03
10,GTGAACACGTGGTTTA,0
11,ATGATCACGTGGATGT,0.16
12,GTAGTCACGTGTGGCG,0.18
13,TGAAGCACGTGTATGT,-0.01
14,TGAGTCACGTGCAGTT,0.1
15,GATGGCACGTGGGTGA,-0.11
16,TGGGGCACGTGGGAGA,-0.15
17,GTGAACACGTGGAAGT,0.13
18,GGTGACACGTGTTATG,0.12
19,TTTGACACGTGTAAGT,0.02
20,TCTGGCACGTGGGTAG,-0.24
21,TCAAGCACGTGGGAGG,-0.17

row,Sequence,relative binding free energy [kcal/mol]
1,GGAGGCACGTGAGTCA,0.24
2,ATGCGCACGTGTTTTT,-0.12
3,AAGGTCACGTGAGGAT,0.28
4,TTCGGCACGTGGGGTG,-0.15
5,TTTGACACGTGTGCTG,0.01
6,AGGTCCACGTGAAGGT,0.11
7,CCTGTCACGTGGGTTA,-0.04
8,ACATTCACGTGTGTTA,0.26
9,ATGCACACGTGGGTGG,-0.15
10,TACCGCACGTGGGGGG,-0.18
11,CGGAGCACGTGATGGA,0.17
12,ATGTTCACGTGTGACA,0.22
13,GGTTCCACGTGGGTTG,-0.01
14,TAGATCACGTGTGCGG,0.18
15,CTTGTCACGTGGCTTT,0.1
16,TAGGTCACGTGGGGTT,0
17,TTTTTCACGTGTGCAG,0.16
18,TATGTCACGTGGCTTT,-0.09
19,AGAGTCACGTGCTGGT,-0.13
20,GATATCACGTGGGGAG,0.07
21,TATCACACGTGGGTTT,-0.07
